We go through three molecules from publication PMC4492818.

The chains behind the UniProt entries cited, without tags or fusion partners.
UniProt Q62406: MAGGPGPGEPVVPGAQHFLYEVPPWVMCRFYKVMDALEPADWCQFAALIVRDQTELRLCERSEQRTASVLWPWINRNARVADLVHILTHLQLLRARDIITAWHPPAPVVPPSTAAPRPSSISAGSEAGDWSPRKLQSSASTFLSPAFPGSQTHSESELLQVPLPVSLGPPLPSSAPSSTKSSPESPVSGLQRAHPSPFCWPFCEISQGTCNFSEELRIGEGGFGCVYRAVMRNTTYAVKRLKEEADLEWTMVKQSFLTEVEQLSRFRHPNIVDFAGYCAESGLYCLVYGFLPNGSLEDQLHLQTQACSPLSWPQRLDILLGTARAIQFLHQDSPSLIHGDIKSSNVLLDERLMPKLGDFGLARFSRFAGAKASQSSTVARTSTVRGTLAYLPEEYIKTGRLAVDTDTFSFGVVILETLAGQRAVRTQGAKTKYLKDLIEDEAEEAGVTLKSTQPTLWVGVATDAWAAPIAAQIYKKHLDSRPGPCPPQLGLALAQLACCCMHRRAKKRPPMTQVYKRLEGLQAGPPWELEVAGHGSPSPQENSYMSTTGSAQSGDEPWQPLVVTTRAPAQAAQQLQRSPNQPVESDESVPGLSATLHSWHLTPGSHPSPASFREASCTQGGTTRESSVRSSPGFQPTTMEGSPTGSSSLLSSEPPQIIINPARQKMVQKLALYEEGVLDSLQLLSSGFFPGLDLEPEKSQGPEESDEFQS

These are yes or no findings as the source states them, for the method shown. Binding seen in cells or lysates may run through a third protein. Some results given as binding are weak or reduced against the parent protein; the word gives no strength.

The target of test [1] is T1, endogenous Pellino-1 (mouse cells) (mouse (endogenous in RAW264.7 and in primary peritoneal macrophages)) (UniProt Q8C669).
T1 sequence: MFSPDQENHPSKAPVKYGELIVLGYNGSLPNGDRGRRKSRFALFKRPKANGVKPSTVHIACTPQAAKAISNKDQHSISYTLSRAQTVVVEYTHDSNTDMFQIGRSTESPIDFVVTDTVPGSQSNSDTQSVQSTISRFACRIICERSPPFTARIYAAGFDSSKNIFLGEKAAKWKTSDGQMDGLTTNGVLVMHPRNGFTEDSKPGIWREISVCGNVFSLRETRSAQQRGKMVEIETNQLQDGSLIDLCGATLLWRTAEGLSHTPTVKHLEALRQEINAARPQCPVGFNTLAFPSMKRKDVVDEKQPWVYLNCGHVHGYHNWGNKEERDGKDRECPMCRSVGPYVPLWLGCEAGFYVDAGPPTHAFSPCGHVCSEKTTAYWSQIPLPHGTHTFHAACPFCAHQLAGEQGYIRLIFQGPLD
Kind of test: co-IP; as a3: synthetic Smaducin-6 added to primary peritoneal macrophages, loss of endogenous Pellino-1 complexes read by immunoprecipitation; only the binder purified.

Test [2] deals with T2, endogenous RIP1 (primary peritoneal macrophages) (mouse (endogenous in primary peritoneal macrophages)) (UniProt Q60855).
T2 sequence: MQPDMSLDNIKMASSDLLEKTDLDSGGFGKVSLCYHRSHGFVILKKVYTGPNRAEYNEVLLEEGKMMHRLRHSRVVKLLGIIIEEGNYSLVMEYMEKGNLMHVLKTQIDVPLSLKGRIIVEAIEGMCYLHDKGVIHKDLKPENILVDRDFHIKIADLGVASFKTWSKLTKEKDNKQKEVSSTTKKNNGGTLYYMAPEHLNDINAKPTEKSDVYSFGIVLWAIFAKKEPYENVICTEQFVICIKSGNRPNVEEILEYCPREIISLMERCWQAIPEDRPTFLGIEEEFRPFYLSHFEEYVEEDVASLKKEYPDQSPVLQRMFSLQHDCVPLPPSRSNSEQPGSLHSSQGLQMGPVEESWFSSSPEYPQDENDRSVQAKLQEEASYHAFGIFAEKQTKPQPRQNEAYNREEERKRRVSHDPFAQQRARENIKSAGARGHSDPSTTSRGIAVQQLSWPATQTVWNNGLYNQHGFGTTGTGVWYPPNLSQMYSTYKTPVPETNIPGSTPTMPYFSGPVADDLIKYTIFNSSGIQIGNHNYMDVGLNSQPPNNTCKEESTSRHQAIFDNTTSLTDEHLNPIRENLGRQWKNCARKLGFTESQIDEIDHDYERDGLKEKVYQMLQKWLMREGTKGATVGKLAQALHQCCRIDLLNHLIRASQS
Kind of test: co-IP; primary peritoneal macrophages, endogenous proteins, 2 h LPS treatment, with Smaducin-6 or scrambled peptide.

Test [3] addresses T3, endogenous IKKε (primary peritoneal macrophages) (mouse (endogenous in primary peritoneal macrophages)) (UniProt Q9R0T8).
T3 sequence: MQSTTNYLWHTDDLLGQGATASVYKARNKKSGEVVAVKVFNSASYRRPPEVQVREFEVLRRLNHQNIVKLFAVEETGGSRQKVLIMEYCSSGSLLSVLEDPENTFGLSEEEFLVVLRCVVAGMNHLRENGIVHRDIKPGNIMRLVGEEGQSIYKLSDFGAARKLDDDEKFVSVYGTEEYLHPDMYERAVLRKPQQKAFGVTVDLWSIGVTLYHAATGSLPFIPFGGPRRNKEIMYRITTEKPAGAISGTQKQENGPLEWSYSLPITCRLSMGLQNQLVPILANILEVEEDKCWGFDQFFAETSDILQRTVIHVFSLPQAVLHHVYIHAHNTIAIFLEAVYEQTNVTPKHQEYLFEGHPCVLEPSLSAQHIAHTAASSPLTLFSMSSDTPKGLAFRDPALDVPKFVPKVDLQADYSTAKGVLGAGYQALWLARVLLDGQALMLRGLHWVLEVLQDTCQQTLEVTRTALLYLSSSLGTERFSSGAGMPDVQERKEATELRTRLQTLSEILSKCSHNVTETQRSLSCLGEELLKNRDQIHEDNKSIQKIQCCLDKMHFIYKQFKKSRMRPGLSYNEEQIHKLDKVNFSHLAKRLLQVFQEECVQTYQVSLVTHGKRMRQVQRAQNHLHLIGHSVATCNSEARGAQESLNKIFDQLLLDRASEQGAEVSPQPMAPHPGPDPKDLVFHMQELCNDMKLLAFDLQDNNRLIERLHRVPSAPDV
Described as above.

Test [4] has as its target endogenous IRAK1 (primary peritoneal macrophages) (mouse (endogenous in primary peritoneal macrophages)) (UniProt Q62406). Described as above.
Test [5] deals with T4, IKKε/TBK1 complex (Supplementary Fig S1, cells not stated) (UniProt Q9R0T8).
T4 sequence 1: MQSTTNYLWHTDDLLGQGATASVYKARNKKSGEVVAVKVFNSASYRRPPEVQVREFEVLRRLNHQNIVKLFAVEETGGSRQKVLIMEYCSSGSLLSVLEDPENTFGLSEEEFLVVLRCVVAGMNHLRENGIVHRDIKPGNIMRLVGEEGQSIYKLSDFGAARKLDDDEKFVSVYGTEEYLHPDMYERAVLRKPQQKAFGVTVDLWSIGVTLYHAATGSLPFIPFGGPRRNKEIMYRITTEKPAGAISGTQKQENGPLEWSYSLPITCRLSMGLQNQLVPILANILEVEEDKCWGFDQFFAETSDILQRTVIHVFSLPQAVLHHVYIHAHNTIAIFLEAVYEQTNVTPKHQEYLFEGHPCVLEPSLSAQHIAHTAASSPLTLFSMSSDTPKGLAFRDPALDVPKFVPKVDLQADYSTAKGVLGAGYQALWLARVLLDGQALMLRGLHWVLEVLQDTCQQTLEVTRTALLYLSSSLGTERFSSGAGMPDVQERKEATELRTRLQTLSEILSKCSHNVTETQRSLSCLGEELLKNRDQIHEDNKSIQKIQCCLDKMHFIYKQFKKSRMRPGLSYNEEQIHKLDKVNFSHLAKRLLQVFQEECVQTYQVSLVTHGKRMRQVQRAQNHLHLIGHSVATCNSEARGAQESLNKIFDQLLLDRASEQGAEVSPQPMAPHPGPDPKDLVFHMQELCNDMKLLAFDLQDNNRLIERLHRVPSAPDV
T4 sequence 2: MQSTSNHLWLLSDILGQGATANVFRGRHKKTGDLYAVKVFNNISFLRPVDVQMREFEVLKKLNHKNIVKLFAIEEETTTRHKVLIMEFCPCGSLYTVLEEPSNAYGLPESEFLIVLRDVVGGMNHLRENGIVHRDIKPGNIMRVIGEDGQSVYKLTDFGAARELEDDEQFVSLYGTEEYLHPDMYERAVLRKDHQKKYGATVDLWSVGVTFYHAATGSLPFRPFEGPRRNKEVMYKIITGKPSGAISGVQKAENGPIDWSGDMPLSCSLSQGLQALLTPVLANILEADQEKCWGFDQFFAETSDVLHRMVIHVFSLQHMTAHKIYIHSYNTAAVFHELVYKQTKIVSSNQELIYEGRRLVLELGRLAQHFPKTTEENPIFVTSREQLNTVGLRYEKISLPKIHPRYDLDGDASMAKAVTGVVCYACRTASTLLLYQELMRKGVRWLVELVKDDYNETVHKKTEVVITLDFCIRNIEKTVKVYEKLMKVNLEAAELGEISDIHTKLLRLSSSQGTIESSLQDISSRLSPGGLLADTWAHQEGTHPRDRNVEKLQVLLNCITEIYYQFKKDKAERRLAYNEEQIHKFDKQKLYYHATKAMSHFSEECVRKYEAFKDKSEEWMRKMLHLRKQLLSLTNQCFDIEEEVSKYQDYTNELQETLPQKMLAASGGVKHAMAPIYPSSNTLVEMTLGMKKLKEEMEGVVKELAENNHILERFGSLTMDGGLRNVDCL
Briefly: co-IP; immunoprecipitation assays with TGF-β1-induced Smad6 (Supplementary Fig S1); cells and antibodies not shown.

Test [6] concerns the target T5, RIP1 (Supplementary Fig S1, cells not stated) (UniProt Q60855).
T5 sequence: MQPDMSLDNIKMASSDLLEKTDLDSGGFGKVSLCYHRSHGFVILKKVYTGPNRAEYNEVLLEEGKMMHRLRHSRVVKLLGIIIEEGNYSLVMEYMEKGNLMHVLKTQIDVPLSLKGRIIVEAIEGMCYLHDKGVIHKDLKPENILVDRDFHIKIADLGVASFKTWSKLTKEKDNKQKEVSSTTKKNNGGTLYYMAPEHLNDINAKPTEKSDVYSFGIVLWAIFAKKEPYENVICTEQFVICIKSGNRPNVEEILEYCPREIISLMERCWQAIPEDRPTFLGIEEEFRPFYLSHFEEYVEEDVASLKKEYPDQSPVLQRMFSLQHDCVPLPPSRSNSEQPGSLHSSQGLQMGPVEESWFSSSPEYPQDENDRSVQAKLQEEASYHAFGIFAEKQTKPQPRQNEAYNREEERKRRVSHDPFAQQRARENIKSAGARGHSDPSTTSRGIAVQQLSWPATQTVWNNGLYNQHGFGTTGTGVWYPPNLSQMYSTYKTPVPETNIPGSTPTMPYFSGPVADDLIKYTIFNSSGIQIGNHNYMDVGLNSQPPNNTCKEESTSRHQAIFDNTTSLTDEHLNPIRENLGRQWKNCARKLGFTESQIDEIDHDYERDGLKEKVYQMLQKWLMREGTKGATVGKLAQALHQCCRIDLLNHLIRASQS
Described as above.

As for GRALVVRKVPPGYSIKVFDF (peptide, UniProt O43541 422-441, palmitic acid conjugated to the N-terminus) [Smaducin-6 (palmitic acid-conjugated Smad6 amino acids 422-441)], the binding result in test [1] is on record as “binds”.

B1: endogenous Pellino-1 (mouse cells) (protein, UniProt Q8C669 1-418)
chain: MFSPDQENHPSKAPVKYGELIVLGYNGSLPNGDRGRRKSRFALFKRPKANGVKPSTVHIACTPQAAKAISNKDQHSISYTLSRAQTVVVEYTHDSNTDMFQIGRSTESPIDFVVTDTVPGSQSNSDTQSVQSTISRFACRIICERSPPFTARIYAAGFDSSKNIFLGEKAAKWKTSDGQMDGLTTNGVLVMHPRNGFTEDSKPGIWREISVCGNVFSLRETRSAQQRGKMVEIETNQLQDGSLIDLCGATLLWRTAEGLSHTPTVKHLEALRQEINAARPQCPVGFNTLAFPSMKRKDVVDEKQPWVYLNCGHVHGYHNWGNKEERDGKDRECPMCRSVGPYVPLWLGCEAGFYVDAGPPTHAFSPCGHVCSEKTTAYWSQIPLPHGTHTFHAACPFCAHQLAGEQGYIRLIFQGPLD
For B1, the binding entry in test [2], in test [3] and in test [4] was “binds” in each case.

B2: Pellino-1 (Supplementary Fig S1, cells not stated) (protein, UniProt Q8C669 1-418)
chain: MFSPDQENHPSKAPVKYGELIVLGYNGSLPNGDRGRRKSRFALFKRPKANGVKPSTVHIACTPQAAKAISNKDQHSISYTLSRAQTVVVEYTHDSNTDMFQIGRSTESPIDFVVTDTVPGSQSNSDTQSVQSTISRFACRIICERSPPFTARIYAAGFDSSKNIFLGEKAAKWKTSDGQMDGLTTNGVLVMHPRNGFTEDSKPGIWREISVCGNVFSLRETRSAQQRGKMVEIETNQLQDGSLIDLCGATLLWRTAEGLSHTPTVKHLEALRQEINAARPQCPVGFNTLAFPSMKRKDVVDEKQPWVYLNCGHVHGYHNWGNKEERDGKDRECPMCRSVGPYVPLWLGCEAGFYVDAGPPTHAFSPCGHVCSEKTTAYWSQIPLPHGTHTFHAACPFCAHQLAGEQGYIRLIFQGPLD
On to B2, for which the binding result in test [5] and in test [6] was “binds” each time.
